Experimental data reported in PubChem BioAssay AID504466 (National Center for Advancing Translational Sciences (NCATS), 2011).
Out of some 330,000 compounds screened, about 4,200 (1.3%) were called active. Inconclusive results, whose numbers are uncertain, are shown with a selection of clear calls. The call rests on the fitted dose curve; in most records, active means well fitted activation curve with a large enough effect; inconclusive means small, poorly fitted or top-dose-only effect; inactive means no such curve, though single readings can be large or run the other way. A potency beside an inconclusive call is a rough fit, not a confirmed value.

Assay: qHTS screen for small molecules that induce genotoxicity in human embryonic kidney (HEK293T) cells expressing luciferase-tagged ELG1; further: nearly all actives have a fitted effect of over 60% in size
Details: HEK293T ELG1-luciferase reporter, luminescence, 16 h; series mostly up to 46 µM
How it was run: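 Luminescence read-out: rising ELG1-luciferase signal, reflecting elevated ELG1 protein under genetic stress, flags genotoxic compounds. Cells were treated for 16 hr at 37 °C before ONE-Glo detection.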
Potency means the concentration at half of the fitted maximal effect; tags describe the fitted curve by direction and shape.

Row | SMILES | Potency
1 | CCCCc1nc2cc(C(=O)N3CCCCC3CCO)ccc2o1 (stereo not given) | inconclusive: 25.9 µM [activator, single point]
2 | CNc1nn(-c2cccc(Cl)c2)nc1N | active: 11.2 µM
3 | c1ccc(CSc2ccc(-c3ccccn3)nn2)nc1 | inconclusive: 5.8 µM [activator, partial curve, poor fit]
4 | CCC(=O)Nc1cc2c(cc1C(=O)CC)OCCO2 | inconclusive: 32.6 µM [activator, partial curve, poor fit]
5 | Cc1ccc(NCc2nnc(SCC(=O)Nc3ncc(C)s3)n2Cc2ccco2)c(C)c1 | inactive
6 | Cc1ccc(NC(=O)CSCC(=O)NNC(=O)c2nn(C)c(=O)c3ccccc23)cc1 | inactive
7 | CC(Sc1nnc(-c2cccnc2)n1N)C(=O)Nc1ccc2c(c1)OCCO2 (stereo not given) | inactive
8 | OCCC1CN(Cc2cc3ccccc3o2)CCN1Cc1ccc(F)cc1 (stereo not given) | inactive
9 | Cc1cc(C)c2oc(-c3ccc(C)c(NC(=S)NC(=O)c4cccs4)c3)nc2c1 | inactive
10 | Nc1nnnn1NCc1cccc(OCc2ccccc2)c1 | inconclusive: 32.6 µM [activator, partial curve, poor fit]
11 | CCOc1cccc(-c2nc3cc(C)ccc3o2)c1 | inconclusive: 3.66 µM [activator, partial curve]
12 | CCCOC1CCCN(C(=O)c2cc(COc3ccc(F)c(F)c3)on2)C1 (stereo not given) | inconclusive: 9.2 µM [activator, partial curve]
13 | COc1ccc(S(=O)(=O)N2CCOCC2)cc1C(=O)NCC(c1ccco1)N1CCCC1 (stereo not given) | inactive
14 | Cc1cccc(/N=C/c2sc3ccccc3c2O)n1 | active: 4.61 µM
15 | O=C(N=Nc1c(O)[nH]c2ccccc12)c1ccc2c(c1)OCO2 | inconclusive: 1.46 µM [activator, full curve]
16 | CCN(CCn1cccn1)C(=O)c1cc(COc2cc(C)ccc2C)on1 | inconclusive: 7.3 µM [activator, partial curve]
17 | Cc1ccc(NC(=O)CC2CCCC2)c(Br)c1 | inconclusive: 18.3 µM [activator, single point]
18 | COc1ccc(OCCn2c(=O)sc3ccccc32)cc1 | inconclusive: 13 µM [activator, partial curve]
19 | COc1ccc(S(=O)(=O)Nc2cccc(-c3ccc(N4CCCCCC4)nn3)c2)c(OC)c1 | inconclusive: 4.61 µM [activator, full curve, poor fit]
20 | CC(=O)Nc1ccc2c(c1)n(C)c(=O)n2C | inconclusive: 32.6 µM [activator, partial curve, poor fit]
21 | Cc1cc(C)c2nc(NC(=O)c3ccc([N+](=O)[O-])o3)sc2c1 | inactive
22 | Cc1ccc(C)c(NC(=O)C(Sc2cccc[n+]2[O-])c2ccccc2)c1 (stereo not given) | inactive
23 | CC(=O)N/N=C/c1ccccc1OCCOc1cccc(C)c1 | inconclusive: 20.6 µM [activator, partial curve, poor fit]
24 | Cc1cccc(NC(=O)c2c([N+](=O)[O-])cnn2C)c1 | inactive
25 | COc1ccc(-c2nsc3c(N4CCCCC4)ncnc23)cc1 | inconclusive: 0.206 µM [activator, partial curve, poor fit]

Row | SMILES | Potency
26 | N#C/C(=C\c1cccnc1)C(=O)Nc1cccc2ccccc12 | inconclusive: 29.1 µM [activator, single point]
27 | CC(=O)c1ccc(N2CCN(C(=S)Nc3ccccc3C(F)(F)F)CC2)cc1 | inactive
28 | Cc1cc(C)cc(NC(=O)N2CCN(C/C=C/c3ccccc3)CC2)c1 | inactive
29 | CCc1ccc(N=C2N=C(N)c3ccccc32)cc1 | inconclusive: 12.6 µM [activator, partial curve, poor fit]
30 | COc1ccc([C@@H]2[C@@H]3C(=O)N(C(C)(C)C)C(=O)[C@@H]3[C@]3(C)C(=O)N(c4cccc(Cl)c4)C(=O)N23)cc1 | inactive
31 | CCCc1nnc(NC(=O)CCC(=O)Nc2ccc(Br)cc2)s1 | inconclusive: 32.6 µM [activator, partial curve, poor fit]
32 | Cc1ccc(CC(=O)NCc2ccc(F)cc2)cc1 | inactive
33 | CCc1nnc(NC(=O)CSc2ccc(-c3ccc(C)cc3)nn2)s1 | inconclusive: 18.3 µM [activator, single point]
34 | Cc1ccc(-c2noc(C3CCN(S(C)(=O)=O)CC3)n2)o1 | inconclusive: 11.2 µM [activator, partial curve, poor fit]
35 | O=C(CN1CCN(c2ccccn2)CC1)N1c2ccccc2CCc2ccccc21 | inactive
36 | C=CCN([C@@H](CC(C)C)C(=O)OC)S(=O)(=O)N(CC=C)[C@@H](CC(C)C)C(=O)OC | inactive
37 | COc1ccc(NC(=O)C2Cc3ccccc3O/C2=N\O)cc1 (stereo not given) | inconclusive: 18.3 µM [activator, partial curve, poor fit]
38 | CN(C)S(=O)(=O)n1cnc([C@@H]2[C@H]3C(=O)OC[C@@H]3C[C@@]23N=CN(Cc2ccccc2)C3=O)c1 | inactive
39 | COC(=O)c1ccccc1OCC(=O)NC1CCCCC1 | active: 20.6 µM
40 | Fc1ccccc1-c1nc(-c2ccccc2)no1 | inconclusive: 4.11 µM [activator, full curve]
41 | Cc1cc(C)c(C)c(S(=O)(=O)N2CCC(C(=O)Nc3ccc(S(=O)(=O)N4CCOCC4)cc3)CC2)c1C | inactive
42 | CCn1c(C)cc(/C=C2/NC(=O)N(c3ccccc3)C2=O)c1C | inconclusive: 14.6 µM [activator, partial curve]
43 | CCc1noc(C)c1C(=O)Nc1cccc(S(=O)(=O)N(C)c2ccccc2)c1 | inactive
44 | Cc1ccc(/C=N/Nc2ccc(Cl)nn2)cc1 | inconclusive: 3.26 µM [activator, full curve, poor fit]
45 | COc1ccc2nc(NC(=O)CSCc3c(C)noc3C)sc2c1 | inconclusive: 23.1 µM [activator, partial curve, poor fit]
46 | CCOc1ccc(N=C2NC(=O)S/C2=C\c2ccc(OC)cc2)cc1 | inactive
47 | Cc1nc(-c2coc3cc(O)c(C)cc3c2=O)cs1 | inconclusive: 0.794 µM [activator, full curve, poor fit]
48 | O=C(COC(=O)CCc1ccc(S(=O)(=O)N2CCOCC2)cc1)NCc1ccc(Cl)cc1 | inactive
49 | C(=N\Nc1nc2ccccc2[nH]1)/c1ccccc1 | inconclusive: 20.6 µM [activator, partial curve]
50 | CCOC(=O)c1c(CSc2cccs2)n(C)c2cc(Br)c(O)c(CN(C)C)c12 | inactive

Row | SMILES | Potency
51 | CCN(CC(=O)Nc1ccc2c(c1)OCCO2)c1nc(-c2cccnc2)nc2ccccc12 | inactive
52 | O=C(NCCCn1ccnc1)c1cc(-c2cccs2)on1 | inconclusive: 20.6 µM [activator, single point]
53 | CC(C)C(c1nnnn1CCc1ccccc1)N1CCSCC1 (stereo not given) | inactive
54 | Cc1cccc(NC(=O)c2cnc3sccn3c2=O)c1 | inconclusive: 2.06 µM [activator, full curve]
55 | CCN(C(=O)CSc1nc2ccccc2o1)C1CCS(=O)(=O)C1 (stereo not given) | inconclusive: 25.9 µM [activator, partial curve, poor fit]
56 | Cc1cc(C(=O)COc2nncc3ccccc23)c(C)n1C | inconclusive: 4.61 µM [activator, partial curve, poor fit]
57 | Oc1ccccc1Nc1ncnc2c1oc1ccccc12 | inconclusive: 32.6 µM [activator, single point]
58 | CCOc1cccc(C(=O)Nc2cccc(-c3nnc(-c4ccccc4)o3)c2)c1 | inactive
59 | O=C(NCc1ccco1)Nc1ccccc1Cl | inconclusive: 20.6 µM [activator, single point]
60 | Cc1cccc(/C(N)=N/OC(=O)Cc2cccs2)c1 | inconclusive: 11.6 µM [activator, partial curve]
61 | Cc1oc(-c2nc3ccccc3n2C)cc1C(=O)c1ccccc1 | active: 1.84 µM
62 | O=[N+]([O-])c1ccc2nc(CCCc3nc4ccc([N+](=O)[O-])cc4[nH]3)[nH]c2c1 | inactive
63 | CN1CCN(c2ccc(-c3ccnn3C(=O)Nc3cccc(C(F)(F)F)c3)cc2)CC1 | inconclusive: 14.6 µM [activator, partial curve, poor fit]
64 | CC(C)[C@H](NC(=O)c1ccccc1)C(=O)OCC(=O)NCCc1ccc(F)cc1 | inactive
65 | CCC1Oc2ccccc2N(CC(=O)NCCN2C(C)CCCC2C)C1=O (stereo not given) | inactive
66 | Cc1ccccc1C(=O)N1CCC(C(=O)Nc2ccc(S(=O)(=O)N3CCOCC3)cc2)CC1 | inactive
67 | CCCCc1nc2cc(C(=O)N3CCCC(COC)C3)ccc2o1 (stereo not given) | inconclusive: 20.6 µM [activator, single point]
68 | CCOc1ccc(NC(=O)c2ccccc2SC)cc1 | inconclusive: 18.3 µM [activator, partial curve, poor fit]
69 | COC(=O)Nc1ccc(S(=O)(=O)N2CCCC(C(=O)NC3CCS(=O)(=O)C3)C2)cc1 (stereo not given) | inactive
70 | CN(Cc1ccccc1)C(=O)CSc1cc(=O)n(C)c2ccccc12 | inconclusive: 23.1 µM [activator, partial curve, poor fit]
71 | COc1ccc(/C(N)=N/OC(=O)c2cccc([N+](=O)[O-])c2C)cc1 | inconclusive: 20.6 µM [activator, single point]
72 | CCCC(=O)Nc1nc(-c2ccc3c(c2)OCCO3)cs1 | active: 2.59 µM
73 | O=C(CSc1nnc(-c2ccncc2)n1Cc1ccco1)N1c2ccccc2Sc2ccc(Cl)cc21 | inactive
74 | COc1ccc(NC(=O)Nc2ccc(C(C)C)cc2)cc1 | inactive
75 | Nc1c(-c2ccc(Cl)cc2)cnc2c(-c3ccc(F)cc3)cnn12 | active: 7.3 µM
